Source: ChEMBL document CHEMBL4888484, “Replenishing the malaria drug discovery pipeline: Screening and hit evaluation of the MMV Hit Generation Library 1 (HGL1) against asexual blood stage Plasmodium falciparum ,using a nano luciferase reporter read-out” (2022)
The campaign covered roughly 150,000 compounds. About 540 (0.36%) showed an effect of 50% or more. This is one part of the list.

tested on: Plasmodium falciparum; assay: Primary screen in NF54 nanoGlo assay, in single point, at 2uM, 72h; a lower Z score goes with more inhibition; type: functional, Erythrocyte; settings: timepoint 72 hour

Question: Which “% Inhibition” value does the source give for `c1ccc([C@H](CCn2cncn2)Nc2ncncn2)cc1` here?
Answer: -4%

Question: And the Z score?
Answer: 0.7

Question: Which “% Inhibition” value does the source give for `CCOCCO[C@@H](C)C(=O)N(C)C1CCN(Cc2ccncc2)CC1` here?
Answer: -7%

Question: What about the Z score of the same compound?
Answer: 1.04

Question: Which results are given for `C[C@@]1(C2CC2)COCCN1C(=O)Cn1cnc(-c2ccccc2)n1`?
Answer: % Inhibition: 5%; Z score: -1.07

Question: With `CC[C@@H](C#N)NS(=O)(=O)c1sc2ccccc2c1Cl` as the compound, how does the “% Inhibition” value read?
Answer: 1%

Question: And the Z score?
Answer: -0.13

Question: For `Cc1cc(C(=O)Nc2ccc3[nH]c(-c4ccco4)nc3c2)cnn1`, which “% Inhibition” value is on record?
Answer: -8%

Question: What about the Z score of the same compound?
Answer: 1.01

Question: How did the “% Inhibition” value turn out when `CCn1nncc1CNC(=O)[C@@H](CN)C1CCCCCC1` was run?
Answer: -1%

Question: What about the Z score of the same compound?
Answer: 0.25

Question: `CCCCNC(=O)c1cc(NC(=O)CC2CCCC2)cc2nc([C@@H]3CCCO3)n(C)c12` was tested. Which “% Inhibition” value did it give?
Answer: -1%

Question: What about the Z score of the same compound?
Answer: 0.25

Question: Which “% Inhibition” value does the source give for `C[C@@H](NC(=O)NC[C@H]1C[C@@H]1c1ccccc1)c1cncc(F)c1` here?
Answer: 5%

Question: What about the Z score of the same compound?
Answer: -1.02

Question: For `CCCc1noc(CCC(=O)NC[C@H](C)N2CCc3ccccc32)n1`, which “% Inhibition” value is on record?
Answer: -17%

Question: And the Z score?
Answer: 2.18

Question: For `COc1cccc(C2=NS(=O)(=O)N(C)C(C(=O)N3CCOCC3)=C2)c1`, which “% Inhibition” value is on record?
Answer: -3%

Question: What about the Z score of the same compound?
Answer: 0.48

Question: For `CN(C(=O)Nc1scnc1C1CC1)[C@H]1CCCC[C@H]1C(F)(F)F`, which “% Inhibition” value is on record?
Answer: 2%

Question: And the Z score?
Answer: -0.36

Question: Which “% Inhibition” value does the source give for `COC(=O)[C@H](N)c1cccc(C(F)(F)F)c1` here?
Answer: 0%

Question: What about the Z score of the same compound?
Answer: 0.01

Question: `COC(=O)CNC(=O)c1nccnc1N` was tested. Which “% Inhibition” value did it give?
Answer: 7%

Question: What about the Z score of the same compound?
Answer: -0.99

Question: Which “% Inhibition” value does the source give for `CCn1ccc2c(CN(C)C[C@H]3CCOC3)cccc21` here?
Answer: -18%

Question: And the Z score?
Answer: 1.66

Question: Which “% Inhibition” value does the source give for `O=C1C[C@H](Nc2ccc3c(c2)CCC3)C(=O)N1CCc1ccccc1` here?
Answer: -6%

Question: What about the Z score of the same compound?
Answer: 0.93

Question: With `CN1CCC[C@H](CCC(=O)N2CCNC(=O)C23CCCCC3)C1` as the compound, how does the “% Inhibition” value read?
Answer: -5%

Question: And the Z score?
Answer: 0.99

Question: Which results are given for `COc1cccc(-c2cc(C(F)(F)F)nc(-n3nc(-c4cccc(C)c4)cc3-c3cccc(C)c3)n2)c1`?
Answer: % Inhibition: -10%; Z score: 1.81

Question: With `CCCCOCCN(C(=O)COC[C@H]1CCCO1)c1cccc(Br)c1` as the compound, how does the “% Inhibition” value read?
Answer: -2%

Question: And the Z score?
Answer: 0.24

Question: With `O=C(c1ccccc1)c1ccc2n1CC[C@H]2C(=O)N1CCN(c2ncccn2)CC1` as the compound, how does the “% Inhibition” value read?
Answer: 29%

Question: What about the Z score of the same compound?
Answer: -3.31

Question: Which results are given for `CC1(C)CC(=O)CC(C)(C)N1[C@@H](O)C(Cl)(Cl)Cl`?
Answer: % Inhibition: -11%; Z score: 1.54

Question: How did the “% Inhibition” value turn out when `CCc1cc(C(=O)N2C[C@@H](CN3C[C@@H](C)O[C@@H](C)C3)[C@@H](CO)C2)ccn1` was run?
Answer: 24%

Question: And the Z score?
Answer: -2.39

Question: `Cc1nc2cccnc2n1C[C@H]1CCCN(S(=O)(=O)c2cc(F)cc(F)c2)C1` was tested. Which “% Inhibition” value did it give?
Answer: -3%

Question: And the Z score?
Answer: 0.43

Question: Which results are given for `O=S(=O)(Nc1ccc2[nH]nnc2c1)c1cc(F)c(F)c(F)c1`?
Answer: % Inhibition: -2%; Z score: 0.29

Question: `C[C@@H](C(=O)NCc1nc(C2CCC(F)(F)CC2)no1)n1cccn1` was tested. Which “% Inhibition” value did it give?
Answer: -3%

Question: And the Z score?
Answer: 0.55

Question: Which results are given for `Cc1nc(CNC(=O)N2CCN(CC(C)(C)O)C[C@@H]2C)sc1C`?
Answer: % Inhibition: -3%; Z score: 0.38

Question: For `CCCN(CCC)Cc1ccc(CNS(=O)(=O)c2ccc3c(c2)C(C)(C)C(=O)N3C)o1`, which “% Inhibition” value is on record?
Answer: -13%

Question: What about the Z score of the same compound?
Answer: 1.68

Question: With `COCCCN1CC[C@H](CNC(=O)c2[nH]c3ccc(C)cc3c2C)C1` as the compound, how does the “% Inhibition” value read?
Answer: -9%

Question: What about the Z score of the same compound?
Answer: 1.05

Question: `O=C(C1CCN([C@H]2CCc3c(F)ccc(F)c32)CC1)N1CCCCCC1` was tested. Which “% Inhibition” value did it give?
Answer: -10%

Question: And the Z score?
Answer: 1.08

Question: Which results are given for `O=C(Nc1cc2ccccc2cc1NC(=O)c1cccc(Cl)c1)c1cccc(Cl)c1`?
Answer: % Inhibition: -17%; Z score: 2.97

Question: Which results are given for `CO[C@H]1CCCC[C@@H]1NCc1cnc(N(C)C)n1C`?
Answer: % Inhibition: 9%; Z score: -1.52

Question: How did the “% Inhibition” value turn out when `O=C(COc1ccccc1)Nc1ccc(N2CCN(c3c(F)c(F)c(F)c(F)c3F)CC2)c(Cl)c1` was run?
Answer: 32%

Question: And the Z score?
Answer: -3.67

Question: How did the “% Inhibition” value turn out when `Cc1cccc(N2CCN(C(=O)c3cn4c(n3)CCCC4)CC2)c1` was run?
Answer: 1%

Question: And the Z score?
Answer: -0.14

Question: With `Cc1cc(CC(=O)N2CCC(Cn3cncn3)CC2)no1` as the compound, how does the “% Inhibition” value read?
Answer: -6%

Question: And the Z score?
Answer: 1.08

Question: How did the “% Inhibition” value turn out when `Cc1cc(=O)n(CC(=O)N(C)Cc2ccc(-n3cccn3)cc2)nc1C` was run?
Answer: -13%

Question: What about the Z score of the same compound?
Answer: 2.41

Question: With `Cc1ccc(NC(=O)N2CC[C@H](S(=O)(=O)c3ccc(Cl)cc3)C2)cc1C` as the compound, how does the “% Inhibition” value read?
Answer: 0%

Question: And the Z score?
Answer: -0.01

Question: With `Cc1ccc(S(=O)(=O)N2CCc3nc(N4CCCC4)nc(N4CCN(C)CC4)c3C2)cc1` as the compound, how does the “% Inhibition” value read?
Answer: -2%

Question: And the Z score?
Answer: 0.24

Question: What does the source list for `CCCCN(Cc1cccn1Cc1ccc(Br)cc1)C(=O)CN(CC(C)C)C(=O)Nc1cccc2ccccc12`?
Answer: % Inhibition: -3%; Z score: 0.52

Question: What does the source list for `Cc1ccc(-c2csc(Nc3ncccc3C)n2)o1`?
Answer: % Inhibition: -7%; Z score: 0.92

Question: What does the source list for `CC(C)C(=O)N1CCC[C@H](CNC(=O)c2cccn3cnnc23)C1`?
Answer: % Inhibition: 5%; Z score: -0.76

Question: Which “% Inhibition” value does the source give for `Cc1cccc(C(=O)N(C)c2nc(C)cs2)n1` here?
Answer: -10%

Question: What about the Z score of the same compound?
Answer: 0.88

Question: `O=C(c1cn2cc(-c3ccc(Cl)cc3)ccc2n1)N1CCN(c2ccccc2)CC1` was tested. Which “% Inhibition” value did it give?
Answer: -20%

Question: And the Z score?
Answer: 2.37

Question: How did the “% Inhibition” value turn out when `COc1ccc(CN2C(=O)N[C@@H](CCC(=O)Nc3ccc(F)c(F)c3)C2=O)cc1` was run?
Answer: -8%

Question: And the Z score?
Answer: 0.9

Question: Which results are given for `CCC1CCN(C(=O)c2ccc3c(c2)N(CC(=O)N2CCCC2)C(=O)CO3)CC1`?
Answer: % Inhibition: -13%; Z score: 1.74

Question: How did the “% Inhibition” value turn out when `CC[C@H](C)NC(=O)c1cc(NC(=O)C(C)C)cc2nc(C)n(Cc3ccccc3)c12` was run?
Answer: -2%

Question: And the Z score?
Answer: 0.4

Question: For `O=C(CNS(=O)(=O)c1ccco1)NC1CCCCC1`, which “% Inhibition” value is on record?
Answer: -13%

Question: What about the Z score of the same compound?
Answer: 1.3

Question: `Cc1cc(=O)c(C(=O)N2CCN(C)CC2)c(CC2CCCC2)n1CCCN1CCCC1=O` was tested. Which “% Inhibition” value did it give?
Answer: -7%

Question: And the Z score?
Answer: 0.97

Question: How did the “% Inhibition” value turn out when `C[C@H](NCc1ccccc1)C1CCCCCC1` was run?
Answer: -15%

Question: And the Z score?
Answer: 2.07

Question: `CN1Cc2ccc(CN(C)C(=O)NCC(F)(F)F)cc2C1` was tested. Which “% Inhibition” value did it give?
Answer: -2%

Question: What about the Z score of the same compound?
Answer: 0.32

Question: Which results are given for `O=C(Cn1c(=O)n(Cc2ccco2)c(=O)c2ccccc21)NC1CCCCC1`?
Answer: % Inhibition: 34%; Z score: -0.87

Question: What does the source list for `C[C@H](OC(=O)C1CCC1)C(=O)N1CC(=O)Nc2ccccc21`?
Answer: % Inhibition: -4%; Z score: 0.84

Question: For `CCN1C[C@@H](CN(C)Cc2[nH]cc(C)c(=O)c2C)CC1=O`, which “% Inhibition” value is on record?
Answer: -13%

Question: And the Z score?
Answer: 2.49

Question: Which “% Inhibition” value does the source give for `O=C(Nc1cc(-c2cccc(Cl)c2)no1)c1cc2ccc3cccnc3c2[nH]1` here?
Answer: -6%

Question: What about the Z score of the same compound?
Answer: 1.09
